{"source": "PubChem BioAssay AID2147", "about": "(National Center for Advancing Translational Sciences (NCATS), 2009)", "note": "The campaign covered roughly 230,000 compounds. About 3,600 (1.6%) were called active. Inconclusive results, whose numbers are uncertain, are shown with a selection of clear calls. Calls come from the whole dose curve; as a rule, active = well fitted inhibition curve with a large enough effect (not every such curve was filed as active); inconclusive = small, poorly fitted or top-dose-only effect, or another doubt; inactive = no such curve, though single readings can be large or run the other way. Potencies of inconclusive entries are doubtful fits and often do not repeat. Note: nearly all actives have a fitted effect of over 50% in size. Potency is the fitted concentration of half-maximal effect; tags give direction and shape of the fitted curve.", "data": [{"target": "Lysine-specific demethylase 4E (Homo sapiens) (UniProt B2RXH2)", "sequence (B2RXH2 whole entry, looked up, the tested form may be a part)": "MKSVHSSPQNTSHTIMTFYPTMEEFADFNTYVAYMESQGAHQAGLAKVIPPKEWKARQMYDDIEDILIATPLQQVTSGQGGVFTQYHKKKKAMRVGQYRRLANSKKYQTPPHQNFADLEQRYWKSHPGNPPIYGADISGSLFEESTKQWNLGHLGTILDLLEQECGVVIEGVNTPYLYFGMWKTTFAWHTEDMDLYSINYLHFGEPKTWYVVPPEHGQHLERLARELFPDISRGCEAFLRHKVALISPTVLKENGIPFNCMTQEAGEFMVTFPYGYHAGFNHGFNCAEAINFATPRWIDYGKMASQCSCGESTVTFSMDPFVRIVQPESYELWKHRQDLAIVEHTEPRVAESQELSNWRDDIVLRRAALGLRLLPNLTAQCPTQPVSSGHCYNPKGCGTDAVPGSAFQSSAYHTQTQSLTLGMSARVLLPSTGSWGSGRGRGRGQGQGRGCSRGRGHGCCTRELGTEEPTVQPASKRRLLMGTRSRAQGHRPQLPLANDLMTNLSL", "test": "qHTS Assay for Inhibitors of Human Jumonji Domain Containing 2E (JMJD2E)", "conditions": "JMJD2E catalytic domain, FDH-coupled NADH fluorescence (FDH is formaldehyde dehydrogenase); series mostly up to 57.1 µM", "values": [{"compound": "C#CCn1cc(/C=N/NC(=O)COc2cccc3cccnc23)c2ccccc21", "Potency": "inactive"}, {"compound": "CCOC(=O)C(C)(C)N(Cc1cccc(C)c1)S(=O)(=O)c1ccc(Cl)c([N+](=O)[O-])c1", "Potency": "inactive"}, {"compound": "COc1cccc(C(=O)Nc2nnc(-c3cccs3)s2)c1", "Potency": "inconclusive: 14.1 µM [inhibitor, partial curve]"}, {"compound": "COc1cccc(Nc2ncnc3c2cnn3-c2cccc(C)c2)c1", "Potency": "inconclusive: 35.5 µM [inhibitor, single point]"}, {"compound": "O=S(=O)(NC1=NCCCCC1)c1ccc2sc(NS(=O)(=O)c3ccc4ccccc4c3)nc2c1", "Potency": "inactive"}, {"compound": "COC(=O)c1c(NC(=O)C2CC=CCC2C(=O)O)sc(C)c1C", "note": "(stereo not drawn)", "Potency": "inconclusive: 39.8 µM [inhibitor, single point]"}, {"compound": "O=S(=O)(c1ccccc1)c1nc(-c2ccco2)oc1NCCCN1CCOCC1", "Potency": "inactive"}, {"compound": "Cc1nc2sc(C(=O)OCC(=O)N3c4ccccc4CC3C)c(C)c2c(=O)[nH]1", "note": "(stereo not drawn)", "Potency": "inconclusive: 25.1 µM [inhibitor, partial curve]"}, {"compound": "COC(=O)[C@@]1(Cc2ccccc2)[C@H]2c3cc(C(=O)N(C)C)n(Cc4ccsc4Br)c3C[C@H]2CN1C(=O)c1ccccc1", "Potency": "inactive"}, {"compound": "CCc1ccc(OCc2nc(-c3ccccn3)no2)c(Br)c1", "Potency": "inactive"}, {"compound": "O=c1c(F)cn(C2CCCO2)c(=O)n1Cc1c(Cl)cccc1Cl", "note": "(stereo not drawn)", "Potency": "inactive"}, {"compound": "CC(=O)CCc1c(C)c2cc(C)ccc2[nH]c1=O", "Potency": "inconclusive: 39.8 µM [inhibitor, single point]"}, {"compound": "O=C(CSc1nnc(Cc2cccs2)n1C1CCCCC1)N1CCCc2ccccc21", "Potency": "inactive"}, {"compound": "CCN(CC)C(=O)CN1C(=O)C(=O)c2ccccc21", "Potency": "inactive"}, {"compound": "CCc1ccc(NC(=O)c2noc3c2CCCCC3)cc1", "Potency": "inconclusive: 35.5 µM [inhibitor, single point]"}, {"compound": "CC1(C)OC(=O)C(=CNc2ccc(F)cc2)C(=O)O1", "Potency": "inactive"}, {"compound": "Cc1ccc2c(c1)c(N=Nc1cccc(C(=O)O)c1)c(O)n2C", "Potency": "inactive"}, {"compound": "CC[n+]1ccc(C)c2cc(S(=O)C(F)(F)F)ccc21", "note": "(stereo not drawn)", "Potency": "inconclusive: 35.5 µM [inhibitor, partial curve]"}, {"compound": "O=C(N/N=C/c1ccccc1O)c1cccc(C(F)(F)F)c1", "Potency": "inconclusive: 31.6 µM [inhibitor, single point]"}, {"compound": "CN1C=CC=C/C1=C1/SC(=S)N(Cc2ccccc2)C1=O", "Potency": "inactive"}, {"compound": "Nc1ccc(-c2nc3cc(N)ccc3s2)cc1", "Potency": "inconclusive: 25.1 µM [inhibitor, partial curve]"}, {"compound": "C/C(=N\\NC(=O)c1c[nH]c2ccccc12)c1ccccn1", "Potency": "inconclusive: 7.08 µM [inhibitor, single point]"}, {"compound": "CCCCn1c(CCC)nc([N+](=O)[O-])c1Sc1ccc(Cl)cn1", "Potency": "inactive"}, {"compound": "COC(=O)C1=CN(C(C)C)C=C(C(=O)OC)C1c1cccc(OC)c1", "Potency": "inconclusive: 28.2 µM [inhibitor, partial curve]"}, {"compound": "O=C(CCc1ccccc1)n1nc(-c2ccccc2)nc1NCc1ccco1", "Potency": "inconclusive: 39.8 µM [inhibitor, single point]"}, {"compound": "N#CCCN(Cc1cccnc1)C(=S)NC(=O)c1ccc(S(=O)(=O)N2CCCC2)cc1", "Potency": "inactive"}, {"compound": "Nn1c(-c2ccco2)n[nH]c1=S", "Potency": "inconclusive: 39.8 µM [inhibitor, single point]"}, {"compound": "COCCCNCCCOc1ccc(Cl)cc1C(C)(C)C", "Potency": "inactive"}, {"compound": "COc1ccc(-c2cc(C(F)F)n3ncc(C(=O)N4CCCCC4)c3n2)cc1", "Potency": "inconclusive: 25.1 µM [inhibitor, partial curve]"}, {"compound": "COc1ccc(C(=O)N2CCc3cc(OC)c(OC)cc3C2)cc1OC", "Potency": "inactive"}, {"compound": "O=C(CSc1ncnc2sc3c(c12)CCCC3)c1ccco1", "Potency": "inconclusive: 28.2 µM [inhibitor, single point]"}, {"compound": "Cc1ccc2c(Cl)c(C(=O)Nc3ccc4c(c3)OCO4)sc2c1", "Potency": "inactive"}, {"compound": "COc1ccc(Cl)c(N2CCN(CCCNC(=O)Nc3ccc(C)cc3)CC2)c1", "Potency": "inactive"}, {"compound": "CCNC(=S)N1CCN(c2ccccn2)CC1", "Potency": "inconclusive: 31.6 µM [inhibitor, partial curve]"}, {"compound": "C=C(C)C1CC=C(C)/C(=N\\NC(=O)CNc2cccc3ccccc23)C1", "note": "(stereo not drawn)", "Potency": "inconclusive: 25.1 µM [inhibitor, partial curve]"}, {"compound": "COc1ccc(C)cc1NC(=O)C(c1ccccc1)N1CCNC(=O)C1", "note": "(stereo not drawn)", "Potency": "inactive"}, {"compound": "COc1ccccc1-c1c(C)nn2c(N3CCC(C)CC3)cc(C)nc12", "Potency": "inconclusive: 39.8 µM [inhibitor, single point]"}, {"compound": "CCc1ccccc1NS(=O)(=O)c1ccc2[nH]cc(C(=O)NCc3ccco3)c(=O)c2c1", "Potency": "inactive"}, {"compound": "CC(c1ccccc1)N1CCn2c(nc3cc(NC(=O)c4cccs4)ccc32)C1", "note": "(stereo not drawn)", "Potency": "inconclusive: 22.4 µM [inhibitor, partial curve]"}, {"compound": "O=C(NNC(=O)C1CCCN(c2ncccn2)C1)c1ccncc1", "note": "(stereo not drawn)", "Potency": "inconclusive: 25.1 µM [inhibitor, single point]"}, {"compound": "COC(=O)c1[nH]c2ccc(F)cc2c1NC(=O)Nc1ccc(OC)cc1", "Potency": "inconclusive: 39.8 µM [inhibitor, single point]"}, {"compound": "COCCOC(=O)C(C#N)c1nc2ccccc2nc1N1CCN(Cc2ccccc2)CC1", "note": "(stereo not drawn)", "Potency": "inconclusive: 28.2 µM [inhibitor, single point]"}, {"compound": "CC(C)c1cccc2nc3c(c([Si](C)(C)C)c12)Cn1c-3cccc1=O", "Potency": "inconclusive: 31.6 µM [inhibitor, partial curve]"}, {"compound": "Cc1ccccc1OCc1nnc(SCC(=O)Nc2ccc3nc(SCC(=O)Nc4ccccc4)sc3c2)n1C", "Potency": "inactive"}, {"compound": "Cc1cccc(C)c1-n1c(C)cc(/C=C2\\NC(=O)NC2=O)c1C", "Potency": "inactive"}, {"compound": "NC(=O)Cn1c(=O)n(-c2ccccc2)c(=O)c2oc3ccccc3c21", "Potency": "inconclusive: 39.8 µM [inhibitor, single point]"}, {"compound": "Cc1c(NC(=S)N/N=C/c2cc([N+](=O)[O-])ccc2O)c(=O)n(-c2ccccc2)n1C", "Potency": "active: 8.91 µM"}, {"compound": "CC1(C)OC(=O)C(=Cc2ccc(-c3ccc(S(N)(=O)=O)cc3)o2)C(=O)O1", "Potency": "inconclusive: 25.1 µM [inhibitor, partial curve]"}]}]}
